Where “and” joins values, the source holds several entries; their conditions need not be identical. Equal values may be shown once.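 Assay format: 96-well plates, 48-hour exposure. GI50 marks 50% less growth.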 Calls of active or inactive are those of the source. Rule as the data show it: active = GI50 up to about 1.1 µM and inactive = higher. Square brackets hold non-standard residues; d marks the D form. Peptide text beside a SMILES is read from it. * marks the point of attachment. ξ: configuration not given here. ξNMe2Val = CC(C)C(C(=O)*)N(C)C; NMeV = CN[CH](C(=O)O)C(C)C; NHBn = c1ccc(CN*)cc1
What follows are compounds tested on NCI-H322M (assay: NCI-60 cell line screen, 48 h).

Structure (SMILES)	GI50
COC1(C)Cc2c(c(C)c(O)c3c2C(=O)C=C(Cl)C3=O)O1 (stereo not drawn)	inactive: > 100 µM
C[C@H]1S[C@H](c2c(Cl)cccc2Cl)N2Cc3ccccc3N=C12	inactive: 10.7 µM
CC(O)c1cc2c(s1)C(=O)c1ccsc1C2=O (stereo not drawn)	active: 0.265 µM
COC(=O)C1OC(O[C@H]2CC[C@]3(C)[C@H]4CC=C5[C@@H]6CC(C)(C)CC[C@]6(C(=O)OC6OCC(O)C(O)C6OC6OC(C)C(OC7OCC(O)C(O)C7O)C(O)C6O)[C@H](O)C[C@@]5(C)[C@]4(C)CC[C@H]3C2(C)C)C(O)C(O)C1O (stereo partly drawn)	inactive: 2.32 µM and inactive: 2.41 µM
CN(/N=C/c1cccc2cccnc12)c1ccccc1	inactive: > 100 µM
O=C(O)CSC(CC1(c2ccc(Cl)cc2)NC(=O)CS1)c1ccc(Cl)cc1 (stereo not drawn)	inactive: > 100 µM
CCOc1ccc(/N=N/C2C(=O)N(C(=O)CC(=O)Nc3ccc(C)cc3)N=C2C)cc1 (stereo not drawn)	inactive: 14.1 µM
COC(=O)CCC(=O)c1ccc2c(c1)CC1(C2)Cc2ccc(C(=O)CCC(=O)OC)cc2C1	inactive: > 100 µM
CSc1ccc(/C=C2\CNC/C(=C\c3ccc(SC)cc3)C2=O)cc1	inactive: > 82.4 µM
Nc1ccccc1C(=O)NC(=O)Nc1ccc(Oc2ncc(Br)cn2)c(Cl)c1	active: < 0.011 µM
CCOC(=O)/C(C#N)=C1\N[C@H](C(=O)OCC)CO1	inactive: > 100 µM
CCCC1C2=C(C(=O)OC2=O)C2C(CC)CC3=C(C(=O)OC3=O)C12 (stereo not drawn)	inactive: > 100 µM
O=[N+]([O-])c1ccc(C[P+]2(c3ccccc3)CCCCC2)cc1.[O-][Cl+3]([O-])([O-])[O-]	inactive: > 100 µM
N#Cc1nc(C#N)c(NC(=O)c2ccccc2C(=O)O)[nH]1	inactive: > 100 µM
CN(C)C(=O)NCCN1CCCCCc2ccccc21	inactive: > 100 µM
CCOC(=O)NN(C(=O)OCC)c1ccc(/N=N/c2ccc(OC)cc2)n1C	inactive: 35 µM
COC(=O)c1ccc(O)c2nc3c(C=O)c(O)cc(O)c3nc12 [LOMOFUNGIN]	inactive: 2 µM
COc1c(C)c(C/C=C(\C)CCCCO)c(OC)c2ccccc12	inactive: 57.4 µM
O=C1/C(=C/c2ccccc2)CN(C(=O)OCC(Cl)(Cl)Cl)C/C1=C\c1ccccc1	inactive: 10.6 µM
C=C1OC(c2ccccc2NC)=NC12CCCCC2	inactive: > 100 µM
NC(=S)N/N=C/c1ccc(OC(=O)COc2ccccc2Cl)cn1	inactive: 39.4 µM

Structure (SMILES)	GI50
CC(=O)C(=O)NC1/C=C(C)\C=C/C(O)C/C=C(C)\C=C/C(O)CC2OC(=O)C1(C)C(=O)C2C (stereo not drawn)	inactive: > 100 µM
O=C1CCC2CCOc3ccc(O)c1c32 (stereo not drawn)	inactive: > 100 µM
O=c1n(-c2ccc(Cl)c(Cl)c2)c(=O)n(-c2ccc(Cl)c(Cl)c2)c(=O)n1-c1ccc(Cl)c(Cl)c1	inactive: 2.17 µM
COC(=O)C1=C(O)C(C(=O)OC)[C@]2(O)[C@@H](C(=O)OC)[C@H]1C[C@@H](c1ccccc1)[C@@H]2C(=O)OC (stereo partly drawn)	inactive: 16.6 µM
COc1cc2c(cc1O)[C@H](C)C(c1ccccc1OC)O2 (stereo partly drawn)	inactive: 5.45 µM
NS(=O)(=O)c1ccc(/N=N/c2ccc(O)c(C(=O)O)c2)cc1 [SALAZOSULFAMIDE]	inactive: > 100 µM
O=C(O)/C=C\C(=O)Nc1ccc2c(c1)C(=O)c1cc(F)ccc1-2	inactive: > 100 µM
Cc1ccc(-c2nc(Cc3n[nH]c(-c4ccc(C)cc4)n3)n[nH]2)cc1	inactive: > 100 µM
c1ccc2c3nc(C4CCCC4)nc-3c(NC3CCCC3)[nH]c2c1	inactive: 30.5 µM
O=C1OC(OC/C(Br)=C(/Br)COC2OC(=O)C(Cl)=C2Cl)C(Cl)=C1Cl (stereo not drawn)	inactive: 23.8 µM
O=C1COc2cc(NC(=S)Nc3ccccc3)ccc2N1	inactive: > 100 µM
COc1cccc(C2ON=C(c3ccccc3)N2C23CC4CC(CC(C4)C2)C3)c1 (stereo not drawn)	inactive: > 10 µM
O=C(NC1C/C(=N/O)c2c(Br)sc(Br)c21)C(F)(F)F (stereo not drawn)	inactive: 31.7 µM
O=C1C(=O)c2ccccc2C=C1[N+](=O)[O-]	inactive: > 100 µM
CCOP(=O)(CC1CC(O)(CNc2cc(Cl)nc(N)n2)C1)OCC (stereo not drawn)	inactive: > 100 µM
O=C(O)C(C1NCCS1)N1C(=O)c2ccccc2C1=O (stereo not drawn)	inactive: > 100 µM
CCc1c(-c2ccc(OC)cc2)oc(OC)c(C)c1=O	inactive: > 100 µM
O=C(O)C(C(C(=O)O)P(=O)(O)O)P(=O)(O)O (stereo not drawn)	inactive: > 100 µM
Cc1c2c(n3c(nc4ccccc43)c1C#N)SCC2	inactive: > 10 µM
COc1ccc2oc3cccc(NCCN(C)C)c3c(=O)c2c1	inactive: 11.4 µM
COc1ccc(C2S/C(=C\c3ccc(O)cc3)C(=O)N2NC(=O)Cc2ccccc2)cc1 (stereo not drawn)	inactive: > 100 µM

Structure (SMILES)	GI50
N#C/C=C(/NC(=O)Nc1ccccc1)N1CCCC1	inactive: > 62.1 µM
C=C1C(=O)C23CC1CCC2C12CO[C@@]3(O)[C@@H](O)C1C(C)(C)C=CC2=O (stereo partly drawn)	inactive: 4.74 µM
O=C(Nc1nnc(-c2c(Cl)c(Cl)c(Cl)c(Cl)c2-c2nc3cc(C(=O)c4ccccc4)ccc3[nH]2)o1)c1ccccc1	inactive: 18.7 µM
Cc1c2cccc-2c(OCCO)cc2c3ccccc3n(C)c12	inactive: 11.8 µM
O=C(/C=C/c1c(O)ccc2ccccc12)c1ccccc1Cl	inactive: 26.4 µM
O=C(CN1CCOCC1)Nc1ccc2c(c1)C1Oc3ccccc3CC1CO2 (stereo not drawn)	inactive: > 100 µM
COC(=O)c1cc2c(=O)n(C)c3ccccc3n2c1C(=O)OC	inactive: 88.3 µM
COc1cc2c(cc1OCCCCOc1cc(-c3ccc(F)cc3)nc(C)n1)N=C[C@@H]1CCCN1C2=O	inactive: 1.26 µM
Cc1cccc2c1c(=O)c1c(O)cc3c(c1n2C)C=CC(C)(C)O3	inactive: > 100 µM
COc1ccc(/C=C(\C(C)=O)C(=O)Nc2ccccc2)cc1	inactive: > 100 µM
CC(C)(C)c1ccc2c(c1)OP1(Oc3cccc4cccnc34)(O2)Oc2ccc(C(C)(C)C)cc2O1	inactive: 5.43 µM
CC1=C(C(=O)Nc2ccccc2)C(c2ccc([N+](=O)[O-])cc2)C(C(=O)Nc2ccccc2)=C(C)N1	inactive: 38.6 µM
CC(C)C(NC(=O)C(C(C)C)N(C)C)C(=O)N(C)C(C(=O)N1CCCC1C(=O)N1CCCC1C(=O)NCc1ccccc1)C(C)C (stereo not drawn) (ξNMe2Val-V[NMeV]PP-NHBn; configuration not given here)	active: 0.01 µM
Cc1nc2c(nc1C)C(=O)C1=C(C2=O)C2C=CC1CC2	inactive: 15.5 µM
O=C(NCCSSCCNC(=O)/C(Cc1ccc(O)c(Br)c1)=N/O)/C(Cc1ccc(O)c(Br)c1)=N/O [PSAMMAPLIN A]	inactive: 1.59 µM
COc1cc2ccc1OCc1cccc(n1)COc1ccc(cc1OC)/C=N\CCNCCNCC/N=C\2	inactive: > 100 µM
CC(CCc1ccccc1)NCC(O)n1c(/N=N/N(C)C)nc2c1c(=O)n(C)c(=O)n2C (stereo not drawn)	inactive: > 100 µM
O=C1Nc2ccc(Br)cc2/C1=N/c1ccc(Cl)cc1	inactive: 30.8 µM
CN(C)CCC(=O)N1C/C(=C\c2ccc(Cl)c(Cl)c2)C(=O)/C(=C/c2ccc(Cl)c(Cl)c2)C1	active: 0.509 µM
CNC(=O)CCC(NC(=O)OC(C)(C)C)C(=O)NC(Cc1ccc(NC(=O)CCCCC(C)=O)cc1)C(=O)NCC(=O)NC (stereo not drawn)	inactive: > 100 µM
COC(=O)/C(C#N)=C1\CCC(C(=O)OC)N1C (stereo not drawn)	inactive: > 100 µM

— ChEMBL document CHEMBL1201862, “PubChem BioAssay data set” (2004)
